The supplement of paper PMC3724861
Some of the results follow.

These sequences were tested on T1, Caupolican (Caup) homeodomain DNA-binding domain (assay: PBM E-score (8-mer, recovered from the published 9-mer minima) (E-score (dimensionless, -0.5 to 0.5)); Drosophila protein; higher = stronger relative binding preference, active = 0.31 or more).
T1 sequence: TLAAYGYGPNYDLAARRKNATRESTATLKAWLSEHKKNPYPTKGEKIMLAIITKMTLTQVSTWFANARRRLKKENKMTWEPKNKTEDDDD
In short: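 Caup's homeodomain DNA-binding domain (residues 214-303) was produced by in vitro transcription and translation and applied at 100 nM to custom-designed protein binding microarrays. Each value is an enrichment score giving relative binding preference for a short DNA word; higher means stronger. Published 9-mer scores were the minimum of their two constituent 8-mer scores, and the 8-mer values were recovered from those minima. A cutoff of 0.31 marks candidate binding sequences.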
With AGACCATG the “PBM E-score” value was inactive: 0.0878.
With ATAGGTAC the “PBM E-score” value was inactive: 0.188.
In the case of CTTTCGAA, the “PBM E-score” value is reported as inactive: -0.134.
With TAAGAGAA the “PBM E-score” value was inactive: 0.0458.
GATGGCTA was tested, and the “PBM E-score” value was inactive: 0.0327.
In the case of TGAACACA, the “PBM E-score” value is reported as inactive: 0.309.
With AGTCATAG the “PBM E-score” value was inactive: -0.00854.
GATGGGCC was tested, and the “PBM E-score” value was inactive: -0.256.
For ATAGTCCG, the “PBM E-score” value was inactive: 0.00249.
GATGAACC was tested, and the “PBM E-score” value was inactive: 0.00393.
For CGTCAGCC, the “PBM E-score” value was inactive: -0.0882.
ATAATACA was tested, and the “PBM E-score” value was inactive: 0.304.
CGAACAAC was tested, and the “PBM E-score” value was ≥ 0.298.
With ATACTACC the “PBM E-score” value was inactive: 0.0922.
For AAAGACAC, the “PBM E-score” value was inactive: 0.195.
With ATGTAACG the “PBM E-score” value was active: 0.347.
With CAGCCAAG the “PBM E-score” value was inactive: -0.0679.
AACTGGGG was tested, and the “PBM E-score” value was inactive: -0.165.
AGTTCTAG was tested, and the “PBM E-score” value was inactive: -0.0919.
In the case of AGGCTAGC, the “PBM E-score” value is reported as inactive: -0.106.
AACTTCAC was tested, and the “PBM E-score” value was inactive: 0.0481.
For CCCTTTCG, the “PBM E-score” value was inactive: -0.0818.
With CCCCCTAA the “PBM E-score” value was inactive: -0.267.
With TCACTACA the “PBM E-score” value was inactive: 0.203.
With CCACATAG the “PBM E-score” value was inactive: -0.12.
For AAAGTCAC, the “PBM E-score” value was inactive: 0.0854.
AAAGGATG was tested, and the “PBM E-score” value was inactive: 0.0452.
For TACCAATA, the “PBM E-score” value was inactive: 0.13.
With GAGTTCAC the “PBM E-score” value was ≥ 0.0472.
With AAAAAGCA the “PBM E-score” value was inactive: 0.023.
For AGTATTGG, the “PBM E-score” value was inactive: 0.0192.
CAGGTATG was tested, and the “PBM E-score” value was inactive: 0.09.
With CGCTCGAC the “PBM E-score” value was inactive: -0.102.
In the case of CTCCTGAC, the “PBM E-score” value is reported as inactive: -0.0862.
TCGGATCA was tested, and the “PBM E-score” value was inactive: 0.032.
For GGACCGCC, the “PBM E-score” value was inactive: -0.285.
With ACCGTGCT the “PBM E-score” value was inactive: -0.0257.
AGAACGAC was tested, and the “PBM E-score” value was inactive: 0.0755.
AAACGAAT was tested, and the “PBM E-score” value was inactive: 0.0632.
In the case of CAGTAAGG, the “PBM E-score” value is reported as inactive: -0.0179.
In the case of CTTAGCGC, the “PBM E-score” value is reported as inactive: -0.0941.
With TATTCAGA the “PBM E-score” value was inactive: 0.0798.
In the case of ATCGTTCC, the “PBM E-score” value is reported as inactive: -0.0486.
In the case of ACCCTTAG, the “PBM E-score” value is reported as inactive: -0.132.
For AGCGTCTG, the “PBM E-score” value was inactive: -0.09.
For CACGGGTA, the “PBM E-score” value was inactive: 0.0209.
CAAGGGAC was tested, and the “PBM E-score” value was inactive: 0.00511.
For AGATGGTA, the “PBM E-score” value was inactive: 0.13.
In the case of ATATCACA, the “PBM E-score” value is reported as inactive: 0.198.
For AAACGTAA, the “PBM E-score” value was inactive: 0.115.
CGTGGCGC was tested, and the “PBM E-score” value was inactive: -0.206.
AGTTACAT was tested, and the “PBM E-score” value was active: 0.319.
GCGGGACA was tested, and the “PBM E-score” value was inactive: -0.0364.
In the case of CTGCTAAA, the “PBM E-score” value is reported as inactive: -0.00878.
In the case of TAGATTCA, the “PBM E-score” value is reported as inactive: 0.0428.
For ACACGCGA, the “PBM E-score” value was inactive: 0.262.
With CTTATGTA the “PBM E-score” value was active: 0.345.
ATCCAGCC was tested, and the “PBM E-score” value was inactive: -0.0544.
For TAACGTAA, the “PBM E-score” value was inactive: 0.176.
With CCCGGACA the “PBM E-score” value was inactive: 0.107.
For CGGACAGA, the “PBM E-score” value was inactive: 0.0699.
GGTACGCA was tested, and the “PBM E-score” value was inactive: 0.0341.
In the case of GTGCCGTA, the “PBM E-score” value is reported as inactive: -0.0637.
CTTTTAAC was tested, and the “PBM E-score” value was inactive: -0.029.
In the case of GTGCGTCA, the “PBM E-score” value is reported as inactive: -0.0558.
CAACTAGC was tested, and the “PBM E-score” value was inactive: 0.12.
In the case of AGAATCGA, the “PBM E-score” value is reported as inactive: -0.0466.
In the case of CGTATCAG, the “PBM E-score” value is reported as inactive: 0.0641.
CGGGTCAC was tested, and the “PBM E-score” value was inactive: -0.222.
In the case of AAACGGTT, the “PBM E-score” value is reported as inactive: -0.0166.
In the case of ACGCCTAG, the “PBM E-score” value is reported as inactive: -0.0826.
With GTCGGTCA the “PBM E-score” value was inactive: 0.0243.
ATTCAGAG was tested, and the “PBM E-score” value was inactive: 0.0966.
With CCGAACTA the “PBM E-score” value was inactive: 0.00691.
For CACGAGAC, the “PBM E-score” value was inactive: 0.0192.
For AACTTGGT, the “PBM E-score” value was inactive: 0.0786.
In the case of AGACTGAA, the “PBM E-score” value is reported as inactive: 0.0149.
For ACCTCCAT, the “PBM E-score” value was inactive: -0.0592.
For CCCGTTCG, the “PBM E-score” value was inactive: -0.0961.
With AAAGTCCG the “PBM E-score” value was inactive: -0.105.
GTTAGAAA was tested, and the “PBM E-score” value was inactive: 0.123.
For AAACAACC, the “PBM E-score” value was inactive: 0.202.
For AAAGAGTT, the “PBM E-score” value was inactive: -0.00574.
With CCACGGGG the “PBM E-score” value was inactive: -0.228.
For CCGCCAAC, the “PBM E-score” value was inactive: -0.159.
With GTGAGAAA the “PBM E-score” value was inactive: -0.0587.
With ATTTCTGC the “PBM E-score” value was inactive: 0.0368.
In the case of CTTAAGCA, the “PBM E-score” value is reported as inactive: -0.0816.
With AGAGAGGA the “PBM E-score” value was inactive: -0.0741.
CCCGCATA was tested, and the “PBM E-score” value was inactive: -0.0221.
GCCGTACA was tested, and the “PBM E-score” value was inactive: 0.116.
CAGATAAC was tested, and the “PBM E-score” value was inactive: 0.075.
In the case of ACTCGTGG, the “PBM E-score” value is reported as inactive: -0.0419.
For CTCTCAGA, the “PBM E-score” value was inactive: -0.116.
In the case of AATATGAC, the “PBM E-score” value is reported as inactive: 0.174.
With CCTATTAA the “PBM E-score” value was inactive: -0.0158.
With ACCGTTAG the “PBM E-score” value was inactive: 0.0138.
AGCCAATG was tested, and the “PBM E-score” value was inactive: -0.0223.
With GTGTCGTA the “PBM E-score” value was inactive: 0.252.
AATTATTG was tested, and the “PBM E-score” value was inactive: 0.086.
CCCTGCCG was tested, and the “PBM E-score” value was inactive: -0.256.
GAGGAGGA was tested, and the “PBM E-score” value was inactive: -0.0583.
For GCGGAAAA, the “PBM E-score” value was inactive: -0.0703.
AAGACAAC was tested, and the “PBM E-score” value was inactive: 0.222.
For GCAAGGAC, the “PBM E-score” value was inactive: -0.0784.
GCACCTGA was tested, and the “PBM E-score” value was inactive: -0.0716.
With ATTTGACC the “PBM E-score” value was inactive: -0.0206.
In the case of AAGTCTAG, the “PBM E-score” value is reported as inactive: -0.0142.
ACCATGAC was tested, and the “PBM E-score” value was inactive: 0.0507.
For ACAGAACT, the “PBM E-score” value was inactive: 0.126.
AACGATGG was tested, and the “PBM E-score” value was inactive: -0.0529.
In the case of ACCCTGAT, the “PBM E-score” value is reported as inactive: -0.0425.
AGATGAGA was tested, and the “PBM E-score” value was inactive: -0.0051.
For CTGATATC, the “PBM E-score” value was inactive: 0.162.
With AATCTAAA the “PBM E-score” value was inactive: -0.00549.
For AGGCAAAC, the “PBM E-score” value was inactive: -0.0423.
ACTTAGCG was tested, and the “PBM E-score” value was inactive: 0.00663.
For ATAAGGGC, the “PBM E-score” value was inactive: -0.0994.
In the case of ATCACCAC, the “PBM E-score” value is reported as inactive: 0.0868.
With CACCGCTC the “PBM E-score” value was inactive: -0.114.
With ACTTTGAA the “PBM E-score” value was inactive: 0.0724.
For GTCGAACA, the “PBM E-score” value was inactive: 0.309.
For CAGTAGTC, the “PBM E-score” value was inactive: -0.0411.
In the case of ATGATATG, the “PBM E-score” value is reported as inactive: 0.167.
With CCTTCTCG the “PBM E-score” value was inactive: -0.105.
In the case of GGAGTGAC, the “PBM E-score” value is reported as inactive: 0.0614.
With CAGAGAGG the “PBM E-score” value was inactive: -0.107.
For GTGCACGA, the “PBM E-score” value was inactive: 0.109.
For GGCCGTCA, the “PBM E-score” value was inactive: -0.215.
With GAAATCTC the “PBM E-score” value was inactive: -0.121.
CTCTTGGA was tested, and the “PBM E-score” value was inactive: 0.00091.
In the case of CCAGGGAG, the “PBM E-score” value is reported as inactive: -0.276.
With ATTGACTA the “PBM E-score” value was inactive: 0.022.
CCGCCTCA was tested, and the “PBM E-score” value was inactive: -0.276.
With CCTGCGCG the “PBM E-score” value was inactive: -0.185.
CATCCTTA was tested, and the “PBM E-score” value was inactive: 0.0386.
With AGAAGGGG the “PBM E-score” value was inactive: -0.22.
ACGTTAAC was tested, and the “PBM E-score” value was inactive: 0.0983.
With CGAAGATA the “PBM E-score” value was inactive: -0.00211.
ACATTCAC was tested, and the “PBM E-score” value was inactive: 0.135.
For GTCTCCCA, the “PBM E-score” value was inactive: -0.128.
